# Source: PubChem BioAssay AID1240 (Sanford-Burnham Center for Chemical Genomics, 2008)
# Hit rate of the full screen: of about 50,000 compounds, about 800 (1.6%) showed an effect of 50% or more. The list shows a part of the results.
# Biological target: Bcl-2-like protein 10 (Homo sapiens) (UniProt Q9HD36)
# Experiment: TR3 peptide-Bcl-B binding displacers, biochemical primary FP assay, phenotype converters (AID 1240);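 note: 0% = Bcl-B with tracer peptide and DMSO and 100% = tracer peptide lacking Bcl-B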
# Conditions: GST-Bcl-B / FITC-TR3 peptide fluorescence polarization; stronger effect = higher value; compound at 3.75 mg/L
# Sequence of UniProt Q9HD36 (Q9HD36 whole entry, looked up): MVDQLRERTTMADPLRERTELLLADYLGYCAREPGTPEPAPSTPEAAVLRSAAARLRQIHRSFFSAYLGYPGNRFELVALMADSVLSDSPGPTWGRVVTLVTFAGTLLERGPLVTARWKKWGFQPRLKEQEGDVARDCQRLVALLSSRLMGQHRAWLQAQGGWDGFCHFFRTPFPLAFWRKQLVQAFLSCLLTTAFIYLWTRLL
row,Compound,displacement [%]
1,CCCC(C)NS(=O)(=O)c1ccc(NC(C)=O)cc1 (centres undefined),12.7
2,O=C1NC(=O)N(c2cccc(F)c2)C(=O)/C1=C/c1ccc(N2CCOCC2)o1,17.7
3,CCOC(=O)C1(P(=O)(c2ccccc2)c2ccccc2)CC1,19.1
4,CCN(CC)S(=O)(=O)c1cc(C(=O)Nc2cccc(C(=O)O)c2)ccc1C,-3.5
5,Cc1ccc(C)c(OCCN2CCCC2)c1,6.9
6,CN1C(=O)C2(c3ccccc31)N1CC3(C)CN2CC(C)(C1)C3=O (centres undefined),-12.9
7,CC(C)OC(=O)c1c(-c2ccc(Cl)cc2Cl)csc1NC(=O)CCC(=O)O,-1.7
8,O=C1c2cccc3cccc(c23)C(=O)N1c1cccnc1,0.6
9,CC(C)OC(=O)c1c(NC(=O)c2cccnc2)sc2c1CCCCC2,-1.2
10,O=C1CCC(C(=O)Nc2ccccc2)N1 (centres undefined),10
11,COc1ccc(CNc2cccc(C)c2)cc1Br,4.3
12,COc1ccc(C2Nc3ccccc3C(=O)N2Cc2ccco2)cc1CSc1ccccn1 (centres undefined),12.7
13,C#CCOc1c(Br)cc(/C=C2\C(=O)NC(=O)N(c3ccc(Cl)cc3)C2=O)cc1OC,-0.6
14,CCCc1cc(C(=O)OC)c(NC(=O)CCC(=O)O)s1,-0.4
15,O=c1c2ccccc2nc(/C=C/c2c[nH]c3ccccc23)n1-c1ccc([N+](=O)[O-])cc1,-62.9
16,c1ccc(CN2CCC(N3CCN(Cc4ccncc4)CC3)CC2)cc1,-1.9
17,O=C1CC(Nc2ccc(F)cc2)C(=O)N1c1ccccc1C(F)(F)F (centres undefined),1.1
18,O=C(/C=C/c1ccc2c(c1)OCO2)Nc1ccc(F)cc1,11.7
19,COc1ccc(C2C(C(C)=O)=C(Nc3ccccc3)CC(C)(O)C2C(C)=O)cc1OC (centres undefined),8.4
20,CCOc1ccc(C2Nc3ccccc3-c3nnc(SC)nc3O2)cc1 (centres undefined),6
21,O=C1SC(Nc2ccc(Cl)cc2)C(=O)N1c1ccccc1 (centres undefined),2.5
22,O=C(NNS(=O)(=O)c1ccc(Br)cc1)c1ccncc1,-11.3
23,Cc1nc([N+](=O)[O-])cn1-c1cccc(O)c1,3
24,CSc1ccccc1NC(=O)/C=C/C(=O)O,9.4
25,CCCc1nc(-c2cc(OC)c(OC)c(OC)c2)no1,13.2
26,COc1cc(/C=C(/C#N)C(=O)Nc2cccc(Br)c2)cc([N+](=O)[O-])c1O,28
27,COc1ccc(NC(=O)c2cc3nc(-c4ccccc4)cc(-c4ccccc4)n3n2)c(OC)c1,10

row,Compound,displacement [%]
1,CCc1nc(-c2cc(OC)c(OC)c(OC)c2)no1,-8.9
2,Cc1ccc(-c2nc3n(n2)C(=O)CCS3)cc1,9.8
3,COc1ccccc1/C=C1\SC(=S)N(c2c(C)n(C)n(-c3ccccc3)c2=O)C1=O,1.2
4,COc1ccc(C2CC(=O)C3=C(C2)Nc2ccccc2NC3c2cc3c(cc2Cl)OCO3)cc1 (centres undefined),12.3
5,COc1ccc(CCNC(=O)/C=C/c2cc(OC)ccc2OC)cc1,-0.6
6,COc1ccc([N+](=O)[O-])cc1NCc1ccc(OC)c(OC)c1OC,4.2
7,COc1ccccc1N1C(=O)c2cccc3c(Cl)ccc(c23)C1=O,22.2
8,N#CCCS(=O)(=O)Oc1ccccc1,-0.2
9,O=C1c2ccccc2C(O)(c2ncc[nH]2)N1c1cccc(F)c1 (centres undefined),-4.5
10,Cc1c(Cl)cccc1NC(=O)C1CC(=O)N(c2ccccc2)C1 (centres undefined),-5.8
11,COc1ccc(/C=C\C(=O)C2C(=O)c3ccccc3C2=O)cc1,122
12,Cc1ccc(-c2nnc(NC(=O)c3cccs3)s2)cc1,2.6
13,CN(C)c1ccc(C(=O)Nc2ccc(S(N)(=O)=O)cc2)cc1,16.2
14,COC(=O)C1=C(C)N(C)C(C)=C(C(=O)OC)C1c1ccccc1OC,-14.9
15,c1ccc(-c2[nH]nc(-c3cccnc3)c2-c2nc3ccccc3[nH]2)cc1,14.7
16,O=C(Nc1ccc(Cc2ccncc2)cc1)C12CC3CC(CC(C3)C1)C2,-1.6
17,COc1ccc(OC)c(/C=N/NC(=O)c2cc[n+](Cc3ccccc3)cc2)c1,8.7
18,CCCCOC(=O)C1=C(C)NC2=C(C(=O)CCC2)C1c1cc2c(cc1Br)OCO2 (centres undefined),1.3
19,COCCNC(=O)/C(=C\C=C\c1ccccc1)NC(=O)c1ccc(C)cc1,8.5
20,Cc1oc(-c2ccccc2)cc1C(=O)Nc1ccc(CC(=O)O)cc1,-8.7
21,CCN(CC)CCOC(=O)c1ccc(NC(=O)c2ccc(OC)c(OC)c2)cc1,-7.7
22,CC(C)CNC(=O)c1cccc(NC(=O)c2ccc(F)cc2)c1,7.7
23,COc1ccc(CN2CCN(C(=O)c3ccccc3)CC2)cc1Br,-6.4
24,O=C(C1CC1c1ccccc1)N1CCN(C(c2ccccc2)c2ccccc2)CC1 (centres undefined),12.3
25,CCOC(=O)C1=C(C)N=c2s/c(=C\c3ccccc3)c(=O)n2C1c1ccc(Cl)cc1 (centres undefined),3.8
26,CCOC(=O)C1=C(C)NC(C)=C(C(=O)OCC)C1c1ccc(F)cc1,0
27,O=C(NCC1CCCO1)/C(=C/c1cccc(Oc2ccccc2)c1)NC(=O)c1ccccc1 (centres undefined),11.3
